Laboratory results published in the supplement of paper PMC4723716.
± gives the uncertainty stated by the source. Whole data set: some 9,900 compounds, median “viability index relative to DMSO control” near 1, cut for the lowest 2% near 0.85. This is one part of the list.

Test system: Plasmodium falciparum NF54 stage V gametocytes
Assay: viability index relative to DMSO control (fraction); higher = less gametocyte killing
Settings: 2.5 µM, incubation time: 72 h
Procedure, shortened: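 In 1,536-well plates, 10 µl of serum-free medium holding P. falciparum NF54 stage V gametocytes (0.75% gametocytemia, 1.25% hematocrit) received compound at 2.5 µM for 72 hr at 37°C in low oxygen. After one to two hours with 3 µl of 2.5 µM MitoTracker Red CMXRos containing 0.13% saponin, red particles of 20–70 µm2 were counted in a single field per well. Viability index is reported as the particle count over the plate mean of wells treated with solvent only.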

[1] = library set: Broad Institute DOS

COc1ccc(S(=O)(=O)Nc2ccc3c(c2)C(=O)N([C@H](C)CO)C[C@@H](C)[C@@H](CN(C)C(=O)Nc2c(C)noc2C)OCCCC[C@@H](C)O3)cc1 was tested, and the viability index [1] was 1.05 ± 0.11.

For CN(C)C(=O)c1ccc(-c2ccc([C@@H]3[C@@H](CO)N4C(=O)CN(C(=O)CC5CC5)C[C@@H]34)cc2)cc1, the viability index [1] was 1.02 ± 0.062.

For Cc1noc(C)c1S(=O)(=O)N(C)C[C@@H]1OCc2ccccc2-c2c(n(C)c3ccccc23)C(=O)N([C@H](C)CO)C[C@H]1C, the viability index [1] was 1.001 ± 0.0088.

With O=C(C[C@H]1CC[C@@H]2[C@H](COC[C@H](O)CN2Cc2nccs2)O1)NCc1ccccc1Cl the viability index [1] was 1.086 ± 0.0099.

O=C(Nc1ccc(C(F)(F)F)cc1)Nc1ccc2c(c1)[C@@H]1C[C@H](CC(=O)N3CCc4ccccc4C3)O[C@H](CO)[C@@H]1O2 was tested, and the viability index [1] was 0.926 ± 0.093.

CC(C)[C@H]1C(=O)NCC/C=C/C[C@H](C)Oc2ccccc2C(=O)N1C.CC(C)[C@H]1C(=O)NCC/C=C\C[C@H](C)Oc2ccccc2C(=O)N1C showed a viability index [1] of 1.03 ± 0.043.

With COc1ccc2c3c([nH]c2c1)[C@@H](CO)NC[C@]31CN(C1)S(=O)(=O)c1cccs1 the viability index [1] was 0.972 ± 0.055.

COCC(=O)N1CC(=O)N2[C@@H](CO)[C@H](c3ccc(-c4ccccc4F)cc3)[C@@H]2C1 showed a viability index [1] of 1.06 ± 0.056.

For CCCNC(=O)N1CC2(C1)[C@H](c1ccccc1)[C@@H](CO)N2Cc1ccc(Cl)cc1, the viability index [1] was 1.08 ± 0.042.

For CCS(=O)(=O)Nc1ccc2c(c1)C(=O)N(C)C[C@@H](OC)[C@H](C)CN(CC1CCCCC1)[C@@H](C)CO2, the viability index [1] was 1.05 ± 0.011.

In the case of O=C1C[C@H](c2ccccc2)C(=O)N[C@@H](c2ccc(F)cc2)C/C=C\CCN1, the viability index [1] is reported as 0.985 ± 0.024.

O=C1CNC[C@@H]2[C@H](c3ccc(C#CC4CCCCC4)cc3)[C@@H](CO)N12 showed a viability index [1] of 1.06 ± 0.067.

For COc1ccc2c3c([nH]c2c1)[C@H](CO)N(C[C@]31CN(C1)S(=O)(=O)c1ccccc1)C(=O)c1cnccn1, the viability index [1] was 1.01 ± 0.034.

With CCS(=O)(=O)N1CCCCN2[C@H](C1)[C@H](c1ccc(C#Cc3ccccn3)cc1)[C@@H]2CO the viability index [1] was 1.058 ± 0.0083.

In the case of COc1ccc2c3c([C@H](CO)N(Cc4ccccc4Cl)C[C@]33CN(C3)C(=O)CN(C)C)n(C)c2c1, the viability index [1] is reported as 0.782 ± 0.042.

Compound COc1cccc(S(=O)(=O)N2CC[C@@H]3[C@H](CO)Nc4ccc(C#Cc5cccnc5)cc4[C@@H]32)c1 has a viability index [1] of 1.06 ± 0.03.

Work on C[C@H]1CCCn2nncc2COCCNC1=O yielded a viability index [1] of 1.01 ± 0.021.

COc1ccc2c3c([nH]c2c1)[C@@H](CO)N(C[C@]31CCN(CC1)C(=O)c1ccncc1)C(=O)C1CC1 was tested, and the viability index [1] was 0.928 ± 0.018.

For C[C@@H]1CCCCO[C@@H](CN(C)Cc2ccc(C(=O)O)cc2)[C@H](C)CN([C@H](C)CO)C(=O)c2cc(N(C)C)ccc2O1, the viability index [1] was 1.09 ± 0.15.

COCC(=O)N1CC(=O)N2[C@H](CO)[C@@H](c3ccc(-c4ccccc4F)cc3)[C@@H]2C1 gave a viability index [1] of 1.07 ± 0.083.

Compound COc1ccc(CN2C[C@H](O)COC[C@H]3O[C@@H](CC(=O)N(C)C)CC[C@@H]32)cc1 has a viability index [1] of 1.08 ± 0.0093.

With COc1cccc(CN2C[C@@H]3N[C@H](C2)[C@H]3c2ccc(-c3ccccc3C)cc2)c1 the viability index [1] was 1.05 ± 0.12.

In the case of COc1ccccc1-c1cn(CC[C@H]2CC[C@@H](NC(=O)C3CCCCC3)[C@@H](CO)O2)nn1, the viability index [1] is reported as 0.982 ± 0.11.

In the case of C/C=C/c1ccc([C@@H]2[C@H](CO)N3C(=O)CN(C(=O)Nc4cccc(OC)c4)C[C@@H]23)cc1, the viability index [1] is reported as 1.07 ± 0.032.

In the case of CCCN1[C@@H]2c3ccc(-c4ccncc4)c(=O)n3C[C@@H]2[C@@H](CO)[C@@H]1C(=O)NCCCN1CCOCC1, the viability index [1] is reported as 1.03 ± 0.024.

Compound CO[C@H]1CN(C)C(=O)c2ccc(NS(C)(=O)=O)cc2OC[C@H](C)N(C(=O)CN(C)C)C[C@@H]1C has a viability index [1] of 0.991 ± 0.069.

CC(C)C(=O)Nc1ccc2c(c1)C(=O)N(C)[C@@H]1CC[C@H](CC(=O)NCCc3ccccc3)O[C@@H]1CO2 was tested, and the viability index [1] was 1.04 ± 0.015.

For Cc1ccccc1S(=O)(=O)N1CC[C@@H]2[C@H]1c1cc(-c3ccc(F)cc3)ccc1N[C@@H]2CO, the viability index [1] was 1.08 ± 0.033.

With O=C(c1cccnc1)N1CC(=O)N2[C@H](CO)[C@H](c3ccc(-c4ccccc4F)cc3)[C@@H]2C1 the viability index [1] was 1.06 ± 0.015.

With O=C(NCCN1CCCC1)c1cc2c(c(-c3cccc(C4=CCCC4)c3)n1)[C@@H](CCO)N(CC1CC1)C2 the viability index [1] was 0.956 ± 0.14.

Work on COc1ccc2c3c([C@H](CO)NC[C@]33CCN(CC3)S(=O)(=O)c3cccc(C)c3)n(C)c2c1 yielded a viability index [1] of 1.01 ± 0.011.

With COc1cccc(C(=O)N2C[C@@H]3[C@H](c4ccccc42)[C@@H](CO)N3C(=O)c2cccc(F)c2)c1 the viability index [1] was 0.9868 ± 0.0011.

C[C@@H]1CN([C@@H](C)CO)C(=O)CCCn2cc(nn2)CO[C@H]1CN(C)S(=O)(=O)c1cccc(C#N)c1 was tested, and the viability index [1] was 1.02 ± 0.02.

Work on CO[C@H](CN(C)C(=O)c1cnccn1)[C@@H](C)CN([C@H](C)CO)S(=O)(=O)c1ccccc1 yielded a viability index [1] of 0.9434 ± 0.0018.

In the case of O=C(CN1CCOCC1)N1CCCCN2[C@H](C1)[C@@H](c1ccc(Br)cc1)[C@@H]2CO, the viability index [1] is reported as 1.09 ± 0.1.

Work on CN(C)C(=O)c1cccc(-c2ccc([C@H]3[C@H]4CNC[C@@H]3N4Cc3ccccc3C(F)(F)F)cc2)c1 yielded a viability index [1] of 1.06 ± 0.081.

Compound CCCNC(=O)N1C[C@@]2(C1)CN(Cc1ccc(F)cc1)[C@H](CO)c1[nH]c3cc(OC)ccc3c21 has a viability index [1] of 1 ± 0.083.

N#Cc1cccc(-c2ccc([C@H]3[C@@H]4CN(C(=O)Cc5ccncc5)C[C@H]3N4)cc2)c1 gave a viability index [1] of 1.102 ± 0.011.

CC(C)NC(=O)N1Cc2cc(C(=O)NC3Cc4ccccc4C3)nc(-c3cccc(-c4cccnc4)c3)c2[C@H]1CCO gave a viability index [1] of 0.764 ± 0.091.

With CN1CCCCN2[C@H](CO)[C@@H](c3ccc(-c4ccc(F)cc4)cc3)[C@H]2C1 the viability index [1] was 0.984 ± 0.093.

In the case of O=C(Cc1ccccn1)N1CC(=O)N2[C@H](C1)[C@@H](c1ccc(C#CCC3CCCC3)cc1)[C@@H]2CO, the viability index [1] is reported as 0.95 ± 0.087.

C/C=C/c1ccc([C@@H]2[C@@H](CO)N(C(=O)CN(C)C)C23CN(C(=O)C2CCOCC2)C3)cc1 showed a viability index [1] of 1.07 ± 0.045.

Work on O=C(Nc1ccccc1F)N1C[C@H]2[C@@H](c3ccccc31)[C@@H](CO)N2C(=O)Cc1cccnc1 yielded a viability index [1] of 1.06 ± 0.02.

O=C(Cc1ccccn1)N1CC(=O)N2[C@@H](CO)[C@H](c3ccc(C#CCC4CCCC4)cc3)[C@@H]2C1 gave a viability index [1] of 1 ± 0.041.

Compound COc1ccc2c3c([C@H](CO)N(C[C@]33CCN(Cc4nccs4)CC3)C(=O)NC(C)C)n(C)c2c1 has a viability index [1] of 1.03 ± 0.065.

CN1c2ccc(-c3cccc(C#N)c3)cc2[C@@H]2[C@@H](CCN2C(=O)c2cccc(F)c2)[C@@H]1CO was tested, and the viability index [1] was 0.994 ± 0.084.

For O=C(C[C@@H]1CC[C@H]2[C@@H](COC[C@@H](O)CN2CCC(F)(F)F)O1)NCC1CC1, the viability index [1] was 1.11 ± 0.039.

N#C[C@H]1[C@@H](c2ccccc2-c2ccccc2F)[C@H](CO)N1C(=O)c1ccccn1 gave a viability index [1] of 1.04 ± 0.052.

Cc1noc(C)c1NC(=O)Nc1cccc2c1O[C@H](CN(C)Cc1ccc(C(=O)Nc3ccccc3N)cc1)[C@@H](C)CN([C@@H](C)CO)C2=O gave a viability index [1] of 0.95 ± 0.043.

In the case of O=C(Nc1ccc(C(F)(F)F)cc1)N[C@H]1C=C[C@@H](CC(=O)N2CCCCC2)O[C@H]1CO, the viability index [1] is reported as 1.08 ± 0.16.

For COc1ccc(S(=O)(=O)N(C)C[C@@H]2OCCCC[C@@H](C)Oc3ccc(NC(=O)Cc4ccccc4)cc3C(=O)N([C@H](C)CO)C[C@@H]2C)cc1, the viability index [1] was 1.08 ± 0.08.

With CN1C(=O)c2cc(NC(=O)C3CCOCC3)ccc2OC[C@@H]2O[C@H](CC(=O)NCCc3ccncc3)CC[C@H]21 the viability index [1] was 1.12 ± 0.11.

COc1ccc(C[C@H]2CCn3cc(nn3)COC[C@@H](C)NC2=O)cc1 showed a viability index [1] of 1.02 ± 0.037.

Work on O=C(Nc1ccccc1F)N[C@H]1CC[C@@H](CCNC(=O)C2CC2)O[C@@H]1CO yielded a viability index [1] of 1.14 ± 0.086.

Compound CS(=O)(=O)N1[C@@H](CO)[C@@H](c2ccccc2)C12CN(C(=O)c1ccccc1F)C2 has a viability index [1] of 1.07 ± 0.073.

With COC(=O)C[C@H]1CC[C@H]2[C@H](COc3ccc(NC(=O)Nc4cccc(C#N)c4)cc3C(=O)N2C)O1 the viability index [1] was 1.1 ± 0.051.

For Cc1noc(C)c1NC(=O)Nc1ccc2c(c1)C(=O)N([C@H](C)CO)C[C@H](C)[C@@H](CN(C)S(=O)(=O)c1ccc(F)cc1)O2, the viability index [1] was 1.08 ± 0.042.

For Cc1ccccc1-c1ccc([C@H]2[C@H]3CN(C(=O)c4ccncc4)CC(=O)N3[C@H]2CO)cc1, the viability index [1] was 1.04 ± 0.027.

CCCN1[C@H](CO)[C@H](c2ccc(-c3ccccc3F)cc2)[C@@H]1CNC(=O)C1CCC1 showed a viability index [1] of 0.99204 ± 0.00027.

In the case of COc1ccccc1-c1cnc2c(c1)C(=O)N([C@H](C)CO)C[C@H](C)[C@H](CN(C)C(=O)CC1CC1)O2, the viability index [1] is reported as 1 ± 0.11.

Compound O=C(Cc1ccncc1)N1CC[C@@H]2[C@H](CO)Nc3ccc(Br)cc3[C@@H]21 has a viability index [1] of 1.077 ± 0.0015.

In the case of COc1ccc([C@@H]2C/C=C\C[C@H](c3ccc4c(c3)OCO4)NC(=O)[C@H](c3ccccc3)CC(=O)N2)c(OC)c1, the viability index [1] is reported as 1.04 ± 0.056.

COc1cccc(-c2ccc3c(c2)[C@H]2[C@H](CCN2C(=O)c2ccccn2)[C@H](CO)N3)c1 was tested, and the viability index [1] was 1.036 ± 0.0019.

O=C(NCCc1ccccc1)[C@H]1[C@H](CO)[C@H]2Cn3c(ccc(-c4cccc(F)c4)c3=O)[C@@H]1N2 was tested, and the viability index [1] was 1.04 ± 0.025.

Cc1nn(C)cc1NC(=O)C[C@H]1CC[C@@H]2[C@H](COc3ccc(NC(=O)c4cccc(F)c4)cc3C(=O)N2C)O1 gave a viability index [1] of 1.13 ± 0.13.

In the case of COC(=O)C[C@H]1C=C[C@H](N)[C@H](CO)O1, the viability index [1] is reported as 1.07 ± 0.11.

In the case of CO[C@H](CN(C)C(=O)c1cc(Cl)cc(Cl)c1)[C@@H](C)CN(C(=O)Nc1ccc(F)cc1)[C@@H](C)CO, the viability index [1] is reported as 0.994 ± 0.031.

For N#C[C@@H]1[C@H](c2ccccc2C2=CCCCC2)[C@H](CO)N1C(=O)Nc1ccccc1F, the viability index [1] was 1.04 ± 0.055.

In the case of Cc1noc(C)c1S(=O)(=O)N(C)C[C@H]1Oc2ccc(N(C)C)cc2C(=O)N([C@H](C)CO)C[C@@H]1C, the viability index [1] is reported as 1.03 ± 0.052.

For CN(C)C(=O)c1cccc(-c2ccc3c(c2)[C@@H]2[C@@H](CCN2C(=O)Cc2ccccc2)[C@H](CO)N3)c1, the viability index [1] was 0.991 ± 0.022.

In the case of O=C(C[C@@H]1CC[C@H]2NC[C@@H](O)COC[C@@H]2O1)Nc1nccs1, the viability index [1] is reported as 1.05 ± 0.015.

For CCCC(=O)Nc1ccc2c(c1)OC[C@@H](C)N(Cc1ccccc1F)C[C@@H](C)[C@H](OC)CN(C)C2=O, the viability index (library set: Broad Institute Blood Stage) was 0.93 ± 0.05.
